PubChem BioAssay (NCI)
More than one record can exist for a structure, and the calls need not agree.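 Activity criterion: percent growth below 10, measured after cells in 96-well plates were exposed to a single compound concentration for 48 hours.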 For part of its entries the source gives two or more results. The other results are left out here. The source may hold further records. This drug was run again and again over the years, at its own concentration, as given; one value stands for one run. Additions like (4×) give the number of equal values in this list.

Experiments:
UACC-62 melanoma = test: NCI-60 one-dose screen, 48 h (100 = growth as untreated, 0 = no growth, -100 = all killed); conditions: 25 µM
LOX IMVI melanoma = test: as above; conditions: 0.25 µM

What does the source list for `COc1cccc2c1C(=O)c1c(O)c3c(c(O)c1C2=O)C[C@@](O)(C(=O)CO)C[C@@H]3OC1CC(N)C(O)C(C)O1` (stereo not given in full)?
growth (UACC-62 melanoma; runs of 1998): inactive: 105% and active: -52.3, -81 (4×), -88.9, -96.8, -99.2, -96 (2×), -91.7 (2×), -85.7, -72.3, -86.6, -93.5, -62.8, -60.8, -86.3, -74.1, -72, -84.8, -95.9, -91.1, -89.4, -87.2, -46.9, -66.9, -66.5, -90.8, -35.1, -41.8, -83.6, -52.2, -61.6, -49.7, -64.3, -70.7, -86.1, -83.1 (3×), -76.4, -90.5, -94.8 (2×), -76.7, -73.8, -80.9, -96.4, -85.4, -92.4, -84.7 (2×), -69.5, -70.6, -82.5, -77.4, -78.4, -81.3, -87, -68.1, -77.2, -83.5, -80.6 (2×), -80, -91.9, -75.4, -89.7, -56.2%; growth (UACC-62 melanoma; runs of 1999): active: -100 (5×), -74.7, -94.9, -86.1, -84.9, -70.2, -86.5, -79.4, -74.5, -83.9, -79.6, -96.1, -89.6, -89.5, -78.4, -79, -81.5, -83.1, -83.2%; growth (UACC-62 melanoma; runs of 2000): active: -100% (2×), -96.4%, -99.1%; growth (LOX IMVI melanoma; runs of 2006): inactive: 15.1% and active: 9.7%; growth (LOX IMVI melanoma; runs of 2007): inactive: 27.9, 19.6, 18.6, 19.9, 21.7, 26.5, 16.3, 19.7, 15.9, 15.6, 34.6, 20.1 (2×), 24.1, 31, 20.5, 23.7 (2×), 14.6, 26.8, 25, 24.6, 10.8, 32.1, 24.5, 23.6, 24.4, 22.4, 25.2, 24.7, 33.4, 24.2 (2×), 30.3, 31.2, 25.5, 25.8, 28.9, 29.3% and active: -22.8%; growth (LOX IMVI melanoma; runs of 2008): inactive: 32.6, 24, 22.7, 28.2, 20.8, 30, 26, 25.2 (2×), 21.7, 29.7, 15.1, 22.1, 28.6, 94, 20.4, 10.4, 10.3, 28.8, 26.6, 23.1, 16.3, 21.9 (2×), 34, 22.6, 13.9, 19.6, 29.3, 18.9% and active: -46, -2.98, -8.98, 2.15, 3.18, -18.2, -8.36, -14.4, -18.3, -17.8, -5.01, 5.15, 1.92, 3.11, -36.6, -23.6, 8.56, 2.62, -6.08, -31.1, -2.15, -4.09, 7.82%; growth (LOX IMVI melanoma; runs of 2009): active: 2.19, 8.36, 6.41, 3.7, 7.79, 9.17, 6.06, 9.71, 8.55, 6.51, 0.203, 9.65% and inactive: 24.1, 14.1, 19.2 (2×), 25.2, 24.5, 19.9 (2×), 23.9, 17.6 (2×), 24.9, 21.3, 14.4 (2×), 14.6, 24.2, 17.9, 13.4, 12, 25.1, 17.8, 23.3, 24.7, 27.7, 15.1, 21.4, 19.5, 29.2, 15.6, 12.9 (2×), 21.7, 29.7, 25.3, 11.4, 11.7 (2×), 16.8, 19.6, 11.8 (2×), 12.7 (3×), 12.3 (2×), 10.7, 11.3, 30.7, 22.3, 15.9, 10.2%; growth (LOX IMVI melanoma; runs of 2010): inactive: 21.1, 11.9, 22.7, 15.3, 20.2 (2×), 17.6, 15.4, 26.5 (2×), 22.9, 13.4, 14.4, 16.3, 19.5, 10.3, 14.3, 10.4, 30.4, 30.2, 21.4, 34.4, 39.7, 32.9, 32.4, 34.1, 25.8, 43.4, 28.4, 36.7, 18.7, 19.8, 12.7, 21.7, 17.9, 21.3, 22.4, 23.6, 27, 18.5, 23.5, 19.4, 18% and active: 9.57%, 9.86%; growth (LOX IMVI melanoma; runs of 2011): inactive: 25.1 (2×), 25.8, 19.5 (2×), 26.7, 22.7 (3×), 19.9, 20.2, 23.5, 19.6, 25.7, 27.2, 28.2, 27.5, 18.5 (2×), 29, 24.1, 31.4 (2×), 26.4, 21.3, 32, 21.7, 30.3, 20.5 (2×), 27.4, 15, 18.7 (2×), 19.1, 10.7, 17.9, 16, 18.8, 13.3, 12.9, 22.5 (2×), 14.3, 12.1, 22.6, 19.4, 25.6, 33.9, 18.6, 15.1, 21.1, 16.8% and active: 9.04%; growth (LOX IMVI melanoma; runs of 2012): inactive: 19.8, 11.7, 10.2, 20.6, 19.1, 20 (2×), 19.6, 27 (3×), 29.8, 15.3, 13.9, 15.7, 10.9, 11.4, 12.6, 13.6, 20.9, 17.7 (2×), 22.3, 22.7, 19.5, 19.4, 15.6, 32, 25.3, 38, 24.4 (2×), 25.2, 29.2, 23.5, 25, 36.2, 30.4, 28.2 (2×), 30.2 (3×), 25.9, 25.5, 27.3, 13, 14.4, 11.9, 16.4, 20.4, 14.1, 21.4, 19.3% and active: 7.05, 9.57, 5.89, 9.5, 7.21, 8.72, 9.91, -23.5%; growth (LOX IMVI melanoma; runs of 2013): inactive: 16.4 (2×), 14.4, 22.6, 24.5 (2×), 14.3, 30.1, 23.2, 23.5, 18.6, 30.4, 24.4, 31.4, 22.9 (2×), 19.9, 28.8, 22.8, 22.5, 25.3, 22.4, 34.6, 23.6, 15.8, 14.6, 22.1, 20.8, 24.1, 19.7, 23, 19.6 (2×), 25.2, 29, 23.7, 25.1, 26.7, 34.9, 39.3, 24.7, 30.7, 27.3, 26.5, 21.7, 20, 33.9, 11, 17.9, 20.9, 16, 14.1 (2×), 22.3, 15.4, 14.7, 11.6, 21.1%; growth (LOX IMVI melanoma; runs of 2014): inactive: 14.6 (2×), 23.2, 20.6, 16.7, 15.8, 18.8, 15 (2×), 21.9 (3×), 17.8, 11.9 (2×), 31, 15.4 (2×), 11.6 (3×), 18.3, 25.4, 13.9, 22.6, 25.3, 15.7, 11.8, 13.2, 11.1, 11, 19.9, 18.7, 16.2, 12.5, 19.2, 15.3, 12 (2×), 10.4, 18.6 (2×), 19.3 (2×), 11.5, 13.4 (2×), 10.1, 17.7, 10.9 (3×), 22.8, 13.6, 15.6, 16.4, 10.5, 19.7, 19.5, 13, 11.4, 23.1, 17.9, 14.4% and active: 8.08, 6.37, 7.3, 7.84, 9.54, 9.6, 3.92, 5.71, 7.6, 8.88, 7.79%; growth (LOX IMVI melanoma; runs of 2015): inactive: 17.6, 13.3 (3×), 20 (2×), 21.9 (2×), 18, 14.1 (2×), 16.2 (3×), 12, 17.1, 10.8, 11.7, 16.8 (2×), 11, 15.8, 12.3, 22.7, 18.7 (2×), 11.3, 15.2 (2×), 20.8, 12.2, 27, 15.3, 13 (2×), 29.1, 13.2, 11.6, 13.7, 19, 16.7 (2×), 25.1, 12.7 (2×), 14.4, 33.6, 11.8, 23.1, 14.7, 28.6, 23.2 (3×), 27.4, 19.8, 31.9, 30.2, 15.6, 17.7, 15.1, 18.5, 18.8, 22.4, 23.6, 19.3, 19.7, 22.1% and active: 2.63, 7.19, 1.1, 8.24, 6.96, 9.97, 6.94, 8.51, 8.68%; growth (LOX IMVI melanoma; runs of 2016): inactive: 21.3 (2×), 20.6, 23.5 (2×), 27.1 (3×), 26.4, 36.3, 15.1 (2×), 18.6, 22.8 (2×), 25.7, 12, 15.9, 22.9, 28.1, 11.1, 11.9, 15.7, 16.4, 13.2, 11.3, 13.7, 11.2, 11.8, 15 (2×), 18.7 (2×), 20 (2×), 10.8, 15.4, 10.7, 25, 25.2, 35, 26.9, 32.7, 22.7, 29.2 (2×), 31.2, 29.4, 26.7, 26.6, 24.4, 24.8 (2×), 27.2, 20.4, 20.1, 21.1, 28.2, 24.5, 24.3, 18, 23.6 (2×), 22.6, 29.5, 22.3 (2×), 17.8, 22.1, 23.3, 23.9, 24.6, 25.1, 19.6, 17.1, 22% and active: 4.51%, 9.87%, 5.87%; growth (LOX IMVI melanoma; runs of 2017): inactive: 20.6 (2×), 22.1 (3×), 22.5, 21.4 (2×), 16.2 (2×), 15.2, 15, 16.6, 15.8, 15.3 (2×), 19.3 (2×), 12.6, 12.7, 18.7, 18.8 (2×), 15.4 (3×), 18.5 (3×), 18.1, 25.8, 29.2, 22.4 (2×), 23.6, 12.1, 17.9, 32.9, 41.8, 11.5, 16.8, 15.7 (2×), 18, 23.2 (2×), 17.8 (2×), 13.3, 18.3, 17.6, 15.9, 14.6, 18.9, 21.9, 12, 12.2, 13.4, 11.3, 19.1, 22.7, 20.2, 19.8, 24.4, 23.3, 25.3, 28.3, 27.1, 25.2, 19.6% and active: 9.77%, 9.33%, 7.62%
